Results from PubChem BioAssay AID686979 (National Center for Advancing Translational Sciences (NCATS), 2013).
About 50,000 (12%) of roughly 420,000 compounds were called active. Inconclusive means that the source gave no clear call. Such entries were picked first, then a sample of the others. The call rests on the fitted dose curve; in most records, active means well fitted inhibition curve with a large enough effect; inconclusive means small, poorly fitted or top-dose-only effect; inactive means flat fitted curve, though single readings scatter. No potency is given beside an inconclusive call; the fits are too rough.

assay: qHTS for Inhibitors of human tyrosyl-DNA phosphodiesterase 1 (TDP1): qHTS in cells in presence of CPT; conditions: chicken DT40 Tdp1-/-;hTDP1 cells + 20 nM CPT, ATP luminescence, 48 h; activity change, negative = growth inhibition: at 46.2 µM (top of the series) unless noted; further: nearly all actives have a fitted effect of over 55% in size
How it was run: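 Chicken DT40 Tdp1-/- cells complemented with human TDP1, 400 cells/well, exposed to compounds plus 20 nM camptothecin for at least 48 h at 37 C; viability read as ATP content by CellTiter-Glo luminescence.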
On the % scale 0 is the no-effect control and ±100 the full control effect; potency means the concentration at half of the fitted maximal effect; tags describe the fitted curve by direction and shape.

Structure (SMILES)	activity change, negative = growth inhibition	Potency
COc1ccccc1C(=O)Nc1ccc(S(=O)(=O)N2CCCCC2)cc1	inactive: -24.3%	–
O=C(NC(=S)Nc1c(Cl)ccc2nsnc12)c1ccccc1F	inactive: -13.1%	–
COc1ccc(S(=O)(=O)N2CCN(Cc3ccc4c(c3)OCO4)CC2)cc1OC	inactive: -4.51%	–
COCCCNC(=S)Nc1ccc(C)cc1[N+](=O)[O-]	inactive: -1.74%	–
CN(CC(=O)Nc1ccccc1Cl)S(=O)(=O)c1ccc(C(=O)N2CCOCC2)s1	–	active: 14.6 µM
Cc1ccc2nc(-c3cccnc3)cc(C(=O)Nc3ccccc3[N+](=O)[O-])c2c1	inconclusive: -34.2% [inhibitor]	–
Nc1cc(Cl)ccc1C(=O)OCC(=O)NC1CCCCCCC1	–	inconclusive [inhibitor, single point]
N#Cc1ccccc1-c1cncnc1NCc1cccnc1	inactive: -19.6%	–
CCCc1cc(C(=O)NC2CCCC2)no1	–	inconclusive [inhibitor, single point]
O=C(O)C1CCCCC1C(=O)N1CC=C(c2ccccc2)CC1 (stereo not given)	–	inconclusive [inhibitor, single point]
CC(C)c1cc(-c2nc(-c3ccccc3)no2)n[nH]1	–	inconclusive [inhibitor, single point]
Cc1ccccc1C(=O)Nc1cccc(NC(=S)NC(=O)c2cccs2)c1	inactive: -28.2%	–
O=S(=O)(Nc1nc2ccccc2nc1NCc1ccco1)c1ccc(Cl)cc1	–	inconclusive [inhibitor, single point]
CCCN(CCC)S(=O)(=O)c1ccc(Cl)c([N+](=O)[O-])c1	–	inconclusive [inhibitor, single point]
COC(=O)c1c(NC(=O)C(Cl)Cl)sc2c1C(C(=O)OC)CC2 (stereo not given)	–	inconclusive [inhibitor, full curve, poor fit]
O=C1CCN(CCc2ccccc2)CCN1[C@H](CSc1ccc(Br)cc1)c1ccccc1	–	inconclusive [inhibitor, single point]
CCCCC(NC(=O)Cc1c(C)c2cc3c(-c4ccccc4)coc3c(C)c2oc1=O)C(=O)O (stereo not given)	inactive: 32.5%	–
Cc1cc(C(=O)N[C@H](c2ccccc2)[C@@]2(C)C[C@@H]2[C@@H](C)C(=O)Nc2ccc3ccccc3c2)n(C)n1	–	inconclusive [inhibitor, single point]
CN1OC[C@@H]2CN[C@H](c3ccc(-c4ccc(C#N)cc4)cc3)C[C@@H]21	–	active: 18.4 µM
CCCc1cc2c(=O)c(-c3ccc4c(c3)OCCO4)coc2cc1OC(=O)c1ccco1	–	inconclusive [inhibitor, single point]
